In all, about 33,000 sequences were measured (“E-score (-0.5 to 0.5)”: median about -0.011, highest 2% from about 0.28 on). This is one part of the list.
Target: T1, Gcr1 (UniProt P07261)
T1 sequence: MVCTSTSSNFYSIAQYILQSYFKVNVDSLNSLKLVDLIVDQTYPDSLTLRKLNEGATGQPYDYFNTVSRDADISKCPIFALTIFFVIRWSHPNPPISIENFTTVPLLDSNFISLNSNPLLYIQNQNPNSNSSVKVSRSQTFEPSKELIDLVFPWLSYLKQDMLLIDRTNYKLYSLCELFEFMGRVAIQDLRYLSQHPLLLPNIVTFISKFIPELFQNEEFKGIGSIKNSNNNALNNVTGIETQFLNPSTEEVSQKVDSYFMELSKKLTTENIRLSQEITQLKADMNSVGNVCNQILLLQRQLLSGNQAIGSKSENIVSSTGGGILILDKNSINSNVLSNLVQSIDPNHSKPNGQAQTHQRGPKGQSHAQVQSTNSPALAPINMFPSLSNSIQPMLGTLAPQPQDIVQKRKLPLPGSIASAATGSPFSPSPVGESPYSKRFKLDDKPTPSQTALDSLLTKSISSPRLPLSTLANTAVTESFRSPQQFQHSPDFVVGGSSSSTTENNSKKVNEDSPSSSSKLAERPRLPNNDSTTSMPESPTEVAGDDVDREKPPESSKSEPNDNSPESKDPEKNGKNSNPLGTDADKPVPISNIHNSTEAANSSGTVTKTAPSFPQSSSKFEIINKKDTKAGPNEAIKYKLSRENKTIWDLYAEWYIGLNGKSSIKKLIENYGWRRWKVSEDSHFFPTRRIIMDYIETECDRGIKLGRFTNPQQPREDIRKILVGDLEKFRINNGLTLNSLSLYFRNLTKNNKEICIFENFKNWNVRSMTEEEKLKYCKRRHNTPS
Experiment: PBM E-score (8-mer binding enrichment) (E-score (-0.5 to 0.5)); higher = stronger / more preferred TF binding; most listed sequences are background and not binding sites
Details: protein concentration: 100 nM; construct: GST-full length
Summary of the method: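 E-scores (a modified Wilcoxon-Mann-Whitney statistic) were assigned by the Universal PBM Analysis Suite to every ungapped eight-base word pooled with its reverse complement. The input came from universal all-10-mer Agilent arrays made double-stranded by primer extension and probed with GST-tagged yeast transcription factors at about 100-200 nM. Fluorescent anti-GST detected bound protein, and masliner normalised the scans.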

Sequence | PBM E-score
ACCATGGA | -0.0985
CGTGTCTA | -0.0143
GCGTGGAC | -0.0157
GCAAATAC | 0.0493
AATGCTCT | -0.112
CCCTCCTA | -0.0494
ATATCGAG | -0.0166
ACGAAGCA | -0.12
ATTATCGA | 0.0528
GGGGTCGA | -0.11
CATCATAC | 0.173
GACTGAGC | -0.0985
ACAGTTGG | -0.0514
AAGCATAG | -0.301
AATGTTTG | -0.105
GCCTAGTA | 0.161
AGAGTTAC | -0.161
CATTATAA | 0.128
GATGGAAC | -0.0256
AAAAGAGT | 0.0747
AGAGAGGC | 0.0259
CAGCCAGA | 0.0488
GAAAGCTC | -0.314
CGTATGCA | -0.105
CCCATACG | 0.14

Sequence | PBM E-score
ACCGATTG | -0.157
TAGACAGA | 0.0147
AACATGCT | -0.122
GTAACGAA | -0.0989
CAATATTG | -0.225
AGATTCAA | -0.107
CGGGGCCC | 0.219
AATTGTCA | 0.0189
TGCTCAAA | 0.0724
CCGCGGTA | 0.167
CAACGAGA | 0.121
GCTCTTAC | -0.298
CACCACGC | -0.131
CAACGAGG | -0.141
CATAAGCC | -0.217
CTGGCATA | 0.0454
TCTAGTCA | 0.0316
GAGGGTCA | -0.243
GTACATGA | 0.0783
AAGAAATT | 0.0237
GACCTACA | -0.065
CCAATACG | -0.0325
GACACGGA | 3e-05
AGAACGCT | -0.217
AAGCGTGG | -0.0647

Sequence | PBM E-score
GATAGGAA | 0.208
GGATTACC | -0.127
TGTGACAA | -0.161
ACTTCAGC | 0.0397
AGGATCAG | -0.148
GAGATACA | 0.101
CTGCAATA | 0.133
TTCCAGAA | 0.287
CTTACCCA | 0.0383
CATTGTAC | -0.1
CGTATCAC | 0.0619
AAAACGGA | 0.0988
ATCCTAAG | 0.138
ACAGCAAC | 0.106
GTTTCCTA | 0.00725
CAGCGGGG | -0.11
AAAGACGT | 0.0548
CATGGTAG | -0.205
GATACAAA | 0.021
GGATATAA | 0.162
CCTACCCA | -0.106
CATTGGCC | -0.116
ATGGTCGC | -0.023
GATTCGGA | 0.153
ACGTGTCG | -0.218

Sequence | PBM E-score
GCTAGGAC | -0.115
TCCCTCAA | 0.00435
ACTTTTAG | 0.0207
TGTTAACA | -0.0311
CATCTAGA | 0.00981
GTGCACCA | -0.154
ACATAAGC | 0.0671
CCATGATA | -0.0729
AGAGACCT | -0.153
ATACTCAG | 0.0334
CAGTTGAG | -0.0438
ACACACAT | -0.0321
GACTCTCA | -0.0371
GCCTCGGA | -0.159
AATCACAT | -0.0824
AAGTACTT | 0.156
AGGTCGTC | -0.181
TACGTCTA | 0.143
CAGATAGC | 0.0723
GGCCGGGA | -0.0727
AGATCACT | 0.0437
GGTTCTTA | 0.238
ACACAGCC | -0.257
GCTGCGAA | 0.17
CGACACAA | -0.0722

Sequence | PBM E-score
AACCCGTA | -0.0238
AAGGAGTC | -0.0124
CTGAGCGC | -0.0234
GATAACTA | 0.153
CTAGCATA | 0.017
ATGGTTCA | -0.153
ATTGACAC | -0.193
GCTCGCCC | -0.169
AAATCTGC | 0.0369
ACTGATAC | 0.0968
CGGAAGGA | 0.0319
GTTCACAA | -0.115
CCTTAGAA | 0.195
AAAATGCC | 0.1
AAATGGTA | 0.0505
CTTGATCC | 0.046
ACACTTGC | -0.152
GTATAACA | 0.0924
AGACGGCT | -0.193
GCCGGGTA | -0.0626
AACATCCT | 0.231
GCTGGAGA | 0.13
GGCGTGAC | -0.204
GATGCCGA | 0.335
GATGCAAA | 0.246

Sequence | PBM E-score
CGAGCTAA | -0.129
AGGCCTAT | -0.0757
GCTAATGA | -0.00839
GCTGAGAC | 0.0117
ATCCAACC | -0.102
GAAGAGGC | 0.0599
AGCGTAGG | -0.139
GCGGTCCA | -0.101
GAGGTCAA | 0.0238
CCGGTTCA | -0.0142
AAACCGGT | 0.118
CGTCCGGC | 0.137
GTTGCACA | -0.112
AAATCCAC | 0.0463
CGTCATAA | -0.0105
AAACATGT | 0.133
CCAACTGA | -0.016
CTGCTTCA | -0.225
CCCCAAGG | -0.0911
CAAAATTA | 0.086
AAACACCC | 0.085
CCCGTCGC | 0.0626
ACGCCGGA | 0.0899
ACGGAATA | 0.00251
GCCACTCC | -0.045

Sequence | PBM E-score
AACGTTTA | -0.0574
GTACGATA | -0.0276
AGAGCTTG | -0.304
ATTCACAG | -0.0484
ATGAGAGG | -0.0153
AGCCCGTA | -0.0871
ACGAAGAA | -0.0157
AAAGTGTC | -0.135
ACTATGGA | -0.00785
CCCGTCGA | -0.121
GATAAAAA | 0.0621
AATTTTGA | 0.0378
GATCAGTA | -0.124
CCAAGGAA | -0.138
ACTGCTAG | -0.121
AGGGGGGG | -0.309
AGACTTTG | -0.078
CTTTTGCC | -0.0371
ATTTCCTG | -0.0336
GAGACCCC | -0.0161
GGACAGCA | -0.291
CGAATGAA | -0.0737

From the supplement of paper PMC3334620
